Measured values: the supplement of paper PMC11417369
± gives the standard deviation of the averaged measurements. Some of the results follow.

System: PfAP2-I AP2 domain 3 (GST-tagged)
Assay: gcPBM binding intensity (ln(normalized median fluorescence intensity)); higher = stronger DNA binding
Summary of the method: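 GST-tagged P. falciparum DNA-binding domains, expressed in E. coli (about 25 μg on average), were applied for 1 h to an Agilent 4 × 180k array of primer-extended double-stranded 36-bp intergenic genomic probes plus negative controls. The binding buffer was 1× PBS with 1% milk, 0.2 mg/ml BSA, 0.5% salmon testes DNA and 0.03% Triton X-100. Bound protein was detected with Alexa488 anti-GST antibody and scanned at 488 nm. Binding intensity is the highest Masliner-normalised natural-log median intensity across replicate spots of either probe orientation.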

| Sequence | gcPBM binding intensity (ln) |
| --- | --- |
| TATATACTTATATACTGTACTCATCATCTTTTAAAG [XGTACX_site6099] | 7.92 ± 0.22 |
| TTTTTTTTTTTTTAAACATGCAAAATATATAATTTT [TGCATGCA_site633] | 7.91 ± 0.62 |
| TAATATATCTATAATACACACTATTCTAATCACATA [CACACA_site6731] | 7.72 ± 0.48 |
| TAATACATAAATAATGTGCACATGGAAATATATCTT | 9.56 ± 0.32 |
| AAAAAAAAAAAAAAATCACACACAATATGAATTTAT [CACACA_site8100] | 8.11 ± 0.69 |
| TATTTTATATACAGTGGTACTTTTTTTTTTTTTTTT [XGTACX_site2475] | 8.64 ± 0.45 |
| AAAAAAAAAAAAAAAACACACATTTGAAGAAAAAAA [CACACA_site7389] | 8.76 ± 0.52 |
| AATTGCTTCAAAATTAAACACACACTAATAAAAAAA [CACACA_site8855] | 7.92 ± 0.71 |
| ACATATATATTATAAGCATGCATGAGAAAATTTTTA [TGCATGCA_site1054] | 7.98 ± 0.3 |
| ATGAATGAATACGTTTTACACACTTGAATATAATTT [CACACA_site8237] | 7.69 ± 0.64 |
| AACATAACAAAAAAAAAAAAAAATATATATATATAT [TGCATGCA_negctrl_site370] | 9.565 ± 0.035 |
| TATTTCACAAAAAAAAAAAAAAAAAAGAAGCAAAAA [CACACA_negctrl_site1040] | 7.61 ± 0.64 |
| GTATATTGTACCATCACACATGTAAAACATAGATGT [CACACA_site5359] | 7.9 ± 0.42 |
| TCCTTAAAAAAACCTTAACACACATAAACTATAATT [CACACA_site9001] | 7.66 ± 0.61 |
| TTTTTTTTTAAGTTTGCACACATGGAAGACAAAAAT [CACACA_site2505] | 8.98 ± 0.39 |
| TTTTTTACATTCTGCACACAATTTATTTTTTTTTTT [CACACA_site4188] | 9.27 ± 0.32 |
| TTTTCGCTTTTATAAAATTATATGAAAAAACTAAAA [XGTACX_negctrl_site139] | 7.69 ± 0.41 |
| TTATGGAAAAATATAACACACAATGATTTTTTATAA [CACACA_site1831] | 7.64 ± 0.48 |
| TACACAAAAATAAACACACACACATATAAATAAATA [CACACA_site6599] | 8 ± 0.18 |
| CCACTAAAGGCATATACACACATTTTTTAAATTGCC [CACACA_site2839] | 7.96 ± 0.63 |
| TGTAATACATGTTGTTGTACAATATCTTTAACTTTT [XGTACX_site1219] | 7.79 ± 0.26 |
| TATAACTATGGGTGTACACATTAATCGTTTTTCTTT [CACACA_site5196] | 7.92 ± 0.3 |
| TATTGTAAAAAAGCAAAATTTATCACCTCCTTATTT [CACACA_negctrl_site172] | 7.44 ± 0.67 |
| AATAATAATTTAAAAAGTACATTCTAATAAACACGT [XGTACX_site1444] | 8.02 ± 0.42 |
